Results as given in a collection of fitness landscapes (doi:10.1016/j.celrep.2020.107928).
The full ranking holds about 81,000 sequences; the median of “one-hybrid fitness for binding NBS DNA” is about -0.1, and the highest 2% start at about 0.36. The list shows a part of the results.

B1: Caulobacter ParB omega fusion; a variant is named by its letters at X, in order, B8GW30 (parent)
chain: MESVVVGEPGMSEGRRGLGRGLSALLGEVDAAPAQAPGEQLGGSREAPIEILQRNPDQPRRTFREEDLEDLSNSIREKGVLQPILVRPSPDTAGEYQIVAGERAWRAAQRAGLKTVPIMVRELDDLAVLEIGIIENVQRADLNVLEEALSYKVLMEKFERTQENIAQTIGKSXSHVANXMRLLXLPDEVQSYLVSGELTAXHARAIAAAADPVALAKQIIEGGLSVRETEALARKAPNLSAGKSKGGRPPRVKDTDTQALESDLSSVLGLDVSIDHRGSTGTLTITYATLEQLDDLCNRLTRGI

Variants of: B1
Assay: one-hybrid fitness for binding NBS DNA (the Noc-binding site; scaled: cognate 1, non-cognate 0); higher = stronger binding
Conditions: with NBS DNA site
How it was run: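 The reporter was HIS3, with the binding site 19 bp from the promoter, in E. coli USO used for bacterial one-hybrid selection of Caulobacter ParB libraries with four specificity codons randomised. Growth was on M9 lacking histidine, with 0.1 mM IPTG and 5 mM 3-AT, for 48 hours at 37°C. Illumina sequencing covered plasmids before and after selection; three replicate libraries were pooled and variants with under 10 reads dropped. A fitness score is the log change in variant-to-wild-type read ratio, rescaled to the cognate and non-cognate references.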

KKNI and TDYY cannot be ordered by “one-hybrid fitness for binding NBS DNA” value: at most 0.2 for the first, at most 0.2 for the second.

RWIL and VEYW cannot be ordered by “one-hybrid fitness for binding NBS DNA” value: at most 0.2 for the first, at most 0.2 for the second.

First: NCKR
Second: PVVY
The “one-hybrid fitness for binding NBS DNA” value of the first is higher: 0.222 for the first, at most 0.2 for the second.

MGVR and LRRW cannot be ordered by “one-hybrid fitness for binding NBS DNA” value: at most 0.2 for the first, at most 0.2 for the second.

MVGR and TSNF cannot be ordered by “one-hybrid fitness for binding NBS DNA” value: at most 0.2 for the first, at most 0.2 for the second.

HKDY and MHTG cannot be ordered by “one-hybrid fitness for binding NBS DNA” value: at most 0.2 for the first, at most 0.2 for the second.

HCVY and QKCL cannot be ordered by “one-hybrid fitness for binding NBS DNA” value: at most 0.2 for the first, at most 0.2 for the second.

LKGR and RSIY cannot be ordered by “one-hybrid fitness for binding NBS DNA” value: at most 0.2 for the first, at most 0.2 for the second.

TTSF and SHAD cannot be ordered by “one-hybrid fitness for binding NBS DNA” value: at most 0.2 for the first, at most 0.2 for the second.

GPAE and GPSM cannot be ordered by “one-hybrid fitness for binding NBS DNA” value: at most 0.2 for the first, at most 0.2 for the second.

CRSY and SKTM cannot be ordered by “one-hybrid fitness for binding NBS DNA” value: at most 0.2 for the first, at most 0.2 for the second.

VHWR and SSLE cannot be ordered by “one-hybrid fitness for binding NBS DNA” value: at most 0.2 for the first, at most 0.2 for the second.

WPPS and QCTP cannot be ordered by “one-hybrid fitness for binding NBS DNA” value: at most 0.2 for the first, at most 0.2 for the second.

RAHI and ALPP cannot be ordered by “one-hybrid fitness for binding NBS DNA” value: at most 0.2 for the first, at most 0.2 for the second.

DAHG and SWDV cannot be ordered by “one-hybrid fitness for binding NBS DNA” value: at most 0.2 for the first, at most 0.2 for the second.

PMQW and ARMG cannot be ordered by “one-hybrid fitness for binding NBS DNA” value: at most 0.2 for the first, at most 0.2 for the second.

First: RVKH
Second: GFRR
The “one-hybrid fitness for binding NBS DNA” value of the first is higher: 0.321 for the first, at most 0.2 for the second.

KSES and DSPY cannot be ordered by “one-hybrid fitness for binding NBS DNA” value: at most 0.2 for the first, at most 0.2 for the second.

YGHR and PAWS cannot be ordered by “one-hybrid fitness for binding NBS DNA” value: at most 0.2 for the first, at most 0.2 for the second.

PVGY and CWYS cannot be ordered by “one-hybrid fitness for binding NBS DNA” value: at most 0.2 for the first, at most 0.2 for the second.

WYNE and SDIL cannot be ordered by “one-hybrid fitness for binding NBS DNA” value: at most 0.2 for the first, at most 0.2 for the second.

GIES and KPKL cannot be ordered by “one-hybrid fitness for binding NBS DNA” value: at most 0.2 for the first, at most 0.2 for the second.

KKIT and WMST cannot be ordered by “one-hybrid fitness for binding NBS DNA” value: at most 0.2 for the first, at most 0.2 for the second.

WYKS and MSDT cannot be ordered by “one-hybrid fitness for binding NBS DNA” value: at most 0.2 for the first, at most 0.2 for the second.

SWAI and RYDL cannot be ordered by “one-hybrid fitness for binding NBS DNA” value: at most 0.2 for the first, at most 0.2 for the second.

RTWM and KCTH cannot be ordered by “one-hybrid fitness for binding NBS DNA” value: at most 0.2 for the first, at most 0.2 for the second.

NDAC and EASE cannot be ordered by “one-hybrid fitness for binding NBS DNA” value: at most 0.2 for the first, at most 0.2 for the second.

SWHM and GVRN cannot be ordered by “one-hybrid fitness for binding NBS DNA” value: at most 0.2 for the first, at most 0.2 for the second.

ISNV and WRDE cannot be ordered by “one-hybrid fitness for binding NBS DNA” value: at most 0.2 for the first, at most 0.2 for the second.

First: NHWI
Second: GVGL
The “one-hybrid fitness for binding NBS DNA” value of the first is lower: at most 0.2 for the first, 0.285 for the second.

EVSC and VTEN cannot be ordered by “one-hybrid fitness for binding NBS DNA” value: at most 0.2 for the first, at most 0.2 for the second.

First: RCNH
Second: VKCE
The “one-hybrid fitness for binding NBS DNA” value of the first is higher: 0.311 for the first, at most 0.2 for the second.

Compared with RTDG, QKNS is higher in “one-hybrid fitness for binding NBS DNA” value: at most 0.2 for the first, 0.539 for the second.

IWGR and CGSS cannot be ordered by “one-hybrid fitness for binding NBS DNA” value: at most 0.2 for the first, at most 0.2 for the second.

HHVC and GWCR cannot be ordered by “one-hybrid fitness for binding NBS DNA” value: at most 0.2 for the first, at most 0.2 for the second.

First: ETHG
Second: QTNS
The “one-hybrid fitness for binding NBS DNA” value of the first is lower: at most 0.2 for the first, 0.629 for the second.

AHTS and LLLS cannot be ordered by “one-hybrid fitness for binding NBS DNA” value: at most 0.2 for the first, at most 0.2 for the second.

SAPI and TATM cannot be ordered by “one-hybrid fitness for binding NBS DNA” value: at most 0.2 for the first, at most 0.2 for the second.

HNGR and WYAR cannot be ordered by “one-hybrid fitness for binding NBS DNA” value: at most 0.2 for the first, at most 0.2 for the second.

DGAA and ADRI cannot be ordered by “one-hybrid fitness for binding NBS DNA” value: at most 0.2 for the first, at most 0.2 for the second.

DGVL and ESSR cannot be ordered by “one-hybrid fitness for binding NBS DNA” value: at most 0.2 for the first, at most 0.2 for the second.

RLCI and CKKM cannot be ordered by “one-hybrid fitness for binding NBS DNA” value: at most 0.2 for the first, at most 0.2 for the second.

PGHI and DVSY cannot be ordered by “one-hybrid fitness for binding NBS DNA” value: at most 0.2 for the first, at most 0.2 for the second.

EKIC and DDWN cannot be ordered by “one-hybrid fitness for binding NBS DNA” value: at most 0.2 for the first, at most 0.2 for the second.

KKMD and WWGS cannot be ordered by “one-hybrid fitness for binding NBS DNA” value: at most 0.2 for the first, at most 0.2 for the second.

PFSN and EMIG cannot be ordered by “one-hybrid fitness for binding NBS DNA” value: at most 0.2 for the first, at most 0.2 for the second.

VNAR and EYKY cannot be ordered by “one-hybrid fitness for binding NBS DNA” value: at most 0.2 for the first, at most 0.2 for the second.

LRYA and SAVF cannot be ordered by “one-hybrid fitness for binding NBS DNA” value: at most 0.2 for the first, at most 0.2 for the second.

INRM and WGDS cannot be ordered by “one-hybrid fitness for binding NBS DNA” value: at most 0.2 for the first, at most 0.2 for the second.

FVGR and IAKT cannot be ordered by “one-hybrid fitness for binding NBS DNA” value: at most 0.2 for the first, at most 0.2 for the second.

QPLS and GYNP cannot be ordered by “one-hybrid fitness for binding NBS DNA” value: at most 0.2 for the first, at most 0.2 for the second.

YPVQ and DYTE cannot be ordered by “one-hybrid fitness for binding NBS DNA” value: at most 0.2 for the first, at most 0.2 for the second.

SPQE and CSFV cannot be ordered by “one-hybrid fitness for binding NBS DNA” value: at most 0.2 for the first, at most 0.2 for the second.

GIKG and ITTV cannot be ordered by “one-hybrid fitness for binding NBS DNA” value: at most 0.2 for the first, at most 0.2 for the second.

RIQW and EKKN cannot be ordered by “one-hybrid fitness for binding NBS DNA” value: at most 0.2 for the first, at most 0.2 for the second.

FTNF and MHMI cannot be ordered by “one-hybrid fitness for binding NBS DNA” value: at most 0.2 for the first, at most 0.2 for the second.

RVDQ and LNVF cannot be ordered by “one-hybrid fitness for binding NBS DNA” value: at most 0.2 for the first, at most 0.2 for the second.

IDNG and CSGR cannot be ordered by “one-hybrid fitness for binding NBS DNA” value: at most 0.2 for the first, at most 0.2 for the second.

Compared with LHKY, KRKM is higher in “one-hybrid fitness for binding NBS DNA” value: at most 0.2 for the first, 0.253 for the second.

CCCG and QNDH cannot be ordered by “one-hybrid fitness for binding NBS DNA” value: at most 0.2 for the first, at most 0.2 for the second.

HSNY and VCTG cannot be ordered by “one-hybrid fitness for binding NBS DNA” value: at most 0.2 for the first, at most 0.2 for the second.

Compared with RMFR, IHWC is lower in “one-hybrid fitness for binding NBS DNA” value: 0.348 for the first, at most 0.2 for the second.

WHES and YEPF cannot be ordered by “one-hybrid fitness for binding NBS DNA” value: at most 0.2 for the first, at most 0.2 for the second.

EVTD and DRTK cannot be ordered by “one-hybrid fitness for binding NBS DNA” value: at most 0.2 for the first, at most 0.2 for the second.

IFPT and HTDS cannot be ordered by “one-hybrid fitness for binding NBS DNA” value: at most 0.2 for the first, at most 0.2 for the second.

EGIS and LFSE cannot be ordered by “one-hybrid fitness for binding NBS DNA” value: at most 0.2 for the first, at most 0.2 for the second.

AGTM and RMQA cannot be ordered by “one-hybrid fitness for binding NBS DNA” value: at most 0.2 for the first, at most 0.2 for the second.

EHRC and LNVM cannot be ordered by “one-hybrid fitness for binding NBS DNA” value: at most 0.2 for the first, at most 0.2 for the second.

AYCG and AGTH cannot be ordered by “one-hybrid fitness for binding NBS DNA” value: at most 0.2 for the first, at most 0.2 for the second.

AAQG and QHEW cannot be ordered by “one-hybrid fitness for binding NBS DNA” value: at most 0.2 for the first, at most 0.2 for the second.

YRMI and FLNC cannot be ordered by “one-hybrid fitness for binding NBS DNA” value: at most 0.2 for the first, at most 0.2 for the second.

DRNK and EFMS cannot be ordered by “one-hybrid fitness for binding NBS DNA” value: at most 0.2 for the first, at most 0.2 for the second.

TRSE and AYDD cannot be ordered by “one-hybrid fitness for binding NBS DNA” value: at most 0.2 for the first, at most 0.2 for the second.

SVYG and HKDG cannot be ordered by “one-hybrid fitness for binding NBS DNA” value: at most 0.2 for the first, at most 0.2 for the second.

NLQR and HRKM cannot be ordered by “one-hybrid fitness for binding NBS DNA” value: at most 0.2 for the first, at most 0.2 for the second.

MWIR and RELA cannot be ordered by “one-hybrid fitness for binding NBS DNA” value: at most 0.2 for the first, at most 0.2 for the second.

With PPGK the “one-hybrid fitness for binding NBS DNA” value was at most 0.2.
